Results from PMC7904913.
Results are given in words; binding and its absence hold for the method and conditions named. For some assays here: In cells and extracts the contact can be indirect. Some results given as binding are weak or reduced against the parent protein; the word gives no strength. For some assays here: Tags and fused reporters may be left off the sequences shown.

Amino acid sequences for entries named in this document (tags omitted). Residues count along the entry.
UniProt Q9NZQ7, residues 19-290: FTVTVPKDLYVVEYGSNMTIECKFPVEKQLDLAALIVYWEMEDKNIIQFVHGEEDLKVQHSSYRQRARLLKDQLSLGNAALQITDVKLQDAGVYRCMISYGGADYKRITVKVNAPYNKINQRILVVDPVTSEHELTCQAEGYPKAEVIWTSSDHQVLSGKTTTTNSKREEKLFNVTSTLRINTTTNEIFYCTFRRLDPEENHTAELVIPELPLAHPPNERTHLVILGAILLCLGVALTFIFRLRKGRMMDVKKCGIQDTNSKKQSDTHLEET

How the values were obtained:
[1] = molecular target: Programmed death ligand-1 (PD-L1), endogenous in RKO cells (human (endogenous in RKO)) (UniProt Q9NZQ7); assay: co-IP; nuclear fraction of wild-type RKO cells; anti-PD-L1 antibody
[2] = molecular target: Programmed death ligand-1 (PD-L1), endogenous in RKO cells (human (endogenous in RKO)) (UniProt Q9NZQ7); assay: co-IP; total lysates from RKO cells; antibodies against PD-L1, Scc1, SA1 or SMC1; endogenous proteins
[3] = molecular target: Programmed death ligand-1 (PD-L1), endogenous in RKO cells (human (endogenous in RKO)) (UniProt Q9NZQ7); assay: condition: only in the cytosol fraction (cytoplasmic and membrane proteins); co-IP; cytosol fraction (containing cytoplasmic and membrane proteins) of wild-type RKO cells; anti-PD-L1 antibody
GST-PD-L1 = GST-PD-L1 (UniProt Q9NZQ7); assay: pull-down; in vitro; purified GST-PD-L1 with His-Scc1, His-SA1 and His-SMC1; Western analysis with anti-His; both purified
[4] = molecular target: PD-L1, wild type, expressed in HEK293T cells (UniProt Q9NZQ7); assay: co-IP; HEK293T cells transfected with the indicated plasmids (PD-L1 and its deletion mutants)

B1: cohesin subunit SA1 (Scc3/SA1), endogenous in RKO cells (protein, UniProt Q8WVM7 1-1258)
chain: MITSELPVLQDSTNETTAHSDAGSELEETEVKGKRKRGRPGRPPSTNKKPRKSPGEKSRIEAGIRGAGRGRANGHPQQNGEGEPVTLFEVVKLGKSAMQSVVDDWIESYKQDRDIALLDLINFFIQCSGCRGTVRIEMFRNMQNAEIIRKMTEEFDEDSGDYPLTMPGPQWKKFRSNFCEFIGVLIRQCQYSIIYDEYMMDTVISLLTGLSDSQVRAFRHTSTLAAMKLMTALVNVALNLSIHQDNTQRQYEAERNKMIGKRANERLELLLQKRKELQENQDEIENMMNSIFKGIFVHRYRDAIAEIRAICIEEIGVWMKMYSDAFLNDSYLKYVGWTLHDRQGEVRLKCLKALQSLYTNRELFPKLELFTNRFKDRIVSMTLDKEYDVAVEAIRLVTLILHGSEEALSNEDCENVYHLVYSAHRPVAVAAGEFLHKKLFSRHDPQAEEALAKRRGRNSPNGNLIRMLVLFFLESELHEHAAYLVDSLWESSQELLKDWECMTELLLEEPVQGEEAMSDRQESALIELMVCTIRQAAEAHPPVGRGTGKRVLTAKERKTQIDDRNKLTEHFIITLPMLLSKYSADAEKVANLLQIPQYFDLEIYSTGRMEKHLDALLKQIKFVVEKHVESDVLEACSKTYSILCSEEYTIQNRVDIARSQLIDEFVDRFNHSVEDLLQEGEEADDDDIYNVLSTLKRLTSFHNAHDLTKWDLFGNCYRLLKTGIEHGAMPEQIVVQALQCSHYSILWQLVKITDGSPSKEDLLVLRKTVKSFLAVCQQCLSNVNTPVKEQAFMLLCDLLMIFSHQLMTGGREGLQPLVFNPDTGLQSELLSFVMDHVFIDQDEENQSMEGDEEDEANKIEALHKRRNLLAAFSKLIIYDIVDMHAAADIFKHYMKYYNDYGDIIKETLSKTRQIDKIQCAKTLILSLQQLFNELVQEQGPNLDRTSAHVSGIKELARRFALTFGLDQIKTREAVATLHKDGIEFAFKYQNQKGQEYPPPNLAFLEVLSEFSSKLLRQDKKTVHSYLEKFLTEQMMERREDVWLPLISYRNSLVTGGEDDRMSVNSGSSSSKTSSVRNKKGRPPLHKKRVEDESLDNTWLNRTDTMIQTPGPLPAPQLTSTVLRENSRPMGDQIQEPESEHGSEPDFLHNPQMQISWLGQPKLEDLNRKDRTGMNYMKVRTGVRHAVRGLMEEDAEPIFEDVMMSSRSQLEDMNEEFEDTMVIDLPPSRNRRERAELRPDFFDSAAIIEDDSGFGMPMF
[1]
  binding: binds
[2]
  binding: binds
[3]
  binding: no binding

B2: His-SA1 (protein, UniProt Q8WVM7 1-1258)
chain: MITSELPVLQDSTNETTAHSDAGSELEETEVKGKRKRGRPGRPPSTNKKPRKSPGEKSRIEAGIRGAGRGRANGHPQQNGEGEPVTLFEVVKLGKSAMQSVVDDWIESYKQDRDIALLDLINFFIQCSGCRGTVRIEMFRNMQNAEIIRKMTEEFDEDSGDYPLTMPGPQWKKFRSNFCEFIGVLIRQCQYSIIYDEYMMDTVISLLTGLSDSQVRAFRHTSTLAAMKLMTALVNVALNLSIHQDNTQRQYEAERNKMIGKRANERLELLLQKRKELQENQDEIENMMNSIFKGIFVHRYRDAIAEIRAICIEEIGVWMKMYSDAFLNDSYLKYVGWTLHDRQGEVRLKCLKALQSLYTNRELFPKLELFTNRFKDRIVSMTLDKEYDVAVEAIRLVTLILHGSEEALSNEDCENVYHLVYSAHRPVAVAAGEFLHKKLFSRHDPQAEEALAKRRGRNSPNGNLIRMLVLFFLESELHEHAAYLVDSLWESSQELLKDWECMTELLLEEPVQGEEAMSDRQESALIELMVCTIRQAAEAHPPVGRGTGKRVLTAKERKTQIDDRNKLTEHFIITLPMLLSKYSADAEKVANLLQIPQYFDLEIYSTGRMEKHLDALLKQIKFVVEKHVESDVLEACSKTYSILCSEEYTIQNRVDIARSQLIDEFVDRFNHSVEDLLQEGEEADDDDIYNVLSTLKRLTSFHNAHDLTKWDLFGNCYRLLKTGIEHGAMPEQIVVQALQCSHYSILWQLVKITDGSPSKEDLLVLRKTVKSFLAVCQQCLSNVNTPVKEQAFMLLCDLLMIFSHQLMTGGREGLQPLVFNPDTGLQSELLSFVMDHVFIDQDEENQSMEGDEEDEANKIEALHKRRNLLAAFSKLIIYDIVDMHAAADIFKHYMKYYNDYGDIIKETLSKTRQIDKIQCAKTLILSLQQLFNELVQEQGPNLDRTSAHVSGIKELARRFALTFGLDQIKTREAVATLHKDGIEFAFKYQNQKGQEYPPPNLAFLEVLSEFSSKLLRQDKKTVHSYLEKFLTEQMMERREDVWLPLISYRNSLVTGGEDDRMSVNSGSSSSKTSSVRNKKGRPPLHKKRVEDESLDNTWLNRTDTMIQTPGPLPAPQLTSTVLRENSRPMGDQIQEPESEHGSEPDFLHNPQMQISWLGQPKLEDLNRKDRTGMNYMKVRTGVRHAVRGLMEEDAEPIFEDVMMSSRSQLEDMNEEFEDTMVIDLPPSRNRRERAELRPDFFDSAAIIEDDSGFGMPMF
GST-PD-L1
  binding: binds

B3: SA1 in HEK293T cells (protein, UniProt Q8WVM7 1-1258)
chain: MITSELPVLQDSTNETTAHSDAGSELEETEVKGKRKRGRPGRPPSTNKKPRKSPGEKSRIEAGIRGAGRGRANGHPQQNGEGEPVTLFEVVKLGKSAMQSVVDDWIESYKQDRDIALLDLINFFIQCSGCRGTVRIEMFRNMQNAEIIRKMTEEFDEDSGDYPLTMPGPQWKKFRSNFCEFIGVLIRQCQYSIIYDEYMMDTVISLLTGLSDSQVRAFRHTSTLAAMKLMTALVNVALNLSIHQDNTQRQYEAERNKMIGKRANERLELLLQKRKELQENQDEIENMMNSIFKGIFVHRYRDAIAEIRAICIEEIGVWMKMYSDAFLNDSYLKYVGWTLHDRQGEVRLKCLKALQSLYTNRELFPKLELFTNRFKDRIVSMTLDKEYDVAVEAIRLVTLILHGSEEALSNEDCENVYHLVYSAHRPVAVAAGEFLHKKLFSRHDPQAEEALAKRRGRNSPNGNLIRMLVLFFLESELHEHAAYLVDSLWESSQELLKDWECMTELLLEEPVQGEEAMSDRQESALIELMVCTIRQAAEAHPPVGRGTGKRVLTAKERKTQIDDRNKLTEHFIITLPMLLSKYSADAEKVANLLQIPQYFDLEIYSTGRMEKHLDALLKQIKFVVEKHVESDVLEACSKTYSILCSEEYTIQNRVDIARSQLIDEFVDRFNHSVEDLLQEGEEADDDDIYNVLSTLKRLTSFHNAHDLTKWDLFGNCYRLLKTGIEHGAMPEQIVVQALQCSHYSILWQLVKITDGSPSKEDLLVLRKTVKSFLAVCQQCLSNVNTPVKEQAFMLLCDLLMIFSHQLMTGGREGLQPLVFNPDTGLQSELLSFVMDHVFIDQDEENQSMEGDEEDEANKIEALHKRRNLLAAFSKLIIYDIVDMHAAADIFKHYMKYYNDYGDIIKETLSKTRQIDKIQCAKTLILSLQQLFNELVQEQGPNLDRTSAHVSGIKELARRFALTFGLDQIKTREAVATLHKDGIEFAFKYQNQKGQEYPPPNLAFLEVLSEFSSKLLRQDKKTVHSYLEKFLTEQMMERREDVWLPLISYRNSLVTGGEDDRMSVNSGSSSSKTSSVRNKKGRPPLHKKRVEDESLDNTWLNRTDTMIQTPGPLPAPQLTSTVLRENSRPMGDQIQEPESEHGSEPDFLHNPQMQISWLGQPKLEDLNRKDRTGMNYMKVRTGVRHAVRGLMEEDAEPIFEDVMMSSRSQLEDMNEEFEDTMVIDLPPSRNRRERAELRPDFFDSAAIIEDDSGFGMPMF
[4]
  binding: binds
